# Experimental data: the antibiotic and cytotoxicity screens of Wong et al. (2023)
# The list shows a part of the results.
# System: HSkMC (human skeletal muscle cells)
# Assay: cytotoxicity call (relative viability < 0.9)
# Details: 10 µM
row,Compound,cytotoxicity call
1,C[C@H](CO)N1C[C@H](C)[C@@H](CN(C)S(=O)(=O)c2ccc(F)cc2)Oc2ccc(NC(=O)CCN3CCOCC3)cc2CC1=O,inactive
2,Cc1ccc(S(=O)(=O)N2C[C@@H](O)COC[C@H]3O[C@H](CC(=O)N[C@H]4CCN(Cc5ccccc5)C4)CC[C@@H]32)cc1,inactive
3,CS(=O)(=O)OCCCCOS(C)(=O)=O,inactive
4,CC(C)N1C[C@H](CN(C)Cc2ccc(Oc3ccccc3)cc2)Oc2c(NC(=O)c3ccncc3)cccc2C1=O,inactive
5,CO[C@@H]1CN(C)C(=O)c2ccc(NC(=O)C3CC3)cc2OC[C@H](C)N(C(=O)CN2CCOCC2)C[C@H]1C,inactive
6,C[C@H]1CN([C@@H](C)CO)C(=O)c2cc(NC(=O)Nc3ccc4c(c3)OCO4)ccc2O[C@H]1CN(C)Cc1ccc(C(=O)Nc2ccccc2N)cc1,inactive
7,C[C@@H]1CN([C@H](C)CO)C(=O)c2cc(NS(=O)(=O)c3cn(C)cn3)ccc2O[C@@H]1CN(C)Cc1ccc(C(=O)O)cc1,inactive
8,CCc1nc(N)nc(N)c1-c1ccc(Cl)cc1,inactive
9,COc1ccc(CN(C)C[C@H]2OCCCC[C@@H](C)Oc3ccc(NS(=O)(=O)c4ccc(C)cc4)cc3C(=O)N([C@@H](C)CO)C[C@H]2C)cc1,inactive
10,COc1ccc(C#Cc2cnc3c(c2)C(=O)N([C@@H](C)CO)C[C@@H](C)[C@H](CN(C)C(=O)CC2CC2)O3)cc1,inactive
11,CC(C)OC(=O)c1cn(Cc2c(F)cccc2F)c2sc(-c3ccc(NC(=O)C(C)C)cc3)c(CN(C)Cc3ccccc3)c2c1=O,inactive
12,Cc1noc(C)c1S(=O)(=O)Nc1ccc2c(c1)C(=O)N([C@H](C)CO)C[C@H](C)[C@@H](CN(C)S(=O)(=O)c1ccc(Cl)cc1)O2,inactive
13,C[C@H](CO)N1C[C@H](C)[C@H](CN(C)C(=O)c2cc(Cl)cc(Cl)c2)OCc2ccccc2-c2ccccc2C1=O,inactive
14,COc1ccc(S(=O)(=O)N(C)C[C@@H]2OCCCC[C@@H](C)Oc3ccc(NC(=O)C4CCCCC4)cc3C(=O)N([C@H](C)CO)C[C@@H]2C)cc1,inactive
15,C[C@@H]1CN([C@@H](C)CO)C(=O)Cc2cc(NS(=O)(=O)c3cn(C)cn3)ccc2O[C@H]1CN(C)S(C)(=O)=O,inactive
16,C[C@H]1CN([C@@H](C)CO)C(=O)c2cc(NS(=O)(=O)c3cn(C)cn3)ccc2O[C@H]1CN(C)C(=O)Nc1ccc(F)cc1,inactive
17,Cc1noc(C)c1NC(=O)N(C)C[C@@H]1Oc2ncc(C#CCN(C)C)cc2C(=O)N([C@@H](C)CO)C[C@H]1C,inactive
18,C[C@@H]1CCCCO[C@H](CN(C)C(=O)CCC(F)(F)F)[C@@H](C)CN([C@H](C)CO)C(=O)c2cc(NC(=O)NC3CCCCC3)ccc2O1,inactive
19,CN(C)CCCCCCNC(=O)[C@H]1C[C@H]2C(=O)N[C@@H](CCCC[N+](C)(C)C)C(=O)N2[C@H]1c1cccc(OCCO)c1,inactive
20,C[C@@H]1CN([C@H](C)CO)C(=O)c2cc(C#Cc3ccccc3F)cnc2O[C@H]1CN(C)C(=O)c1ccc2c(c1)OCO2,inactive

row,Compound,cytotoxicity call
1,C[C@@H]1CCCCO[C@H](CN(C)S(C)(=O)=O)[C@@H](C)CN([C@@H](C)CO)C(=O)c2cc(NC(=O)c3ccncc3)ccc2O1,inactive
2,CC(=O)NCC(=O)N1CCC2(CC1)C(=O)N(CC1CC1)CCN2C,inactive
3,C[C@H](CO)N1C[C@H](C)[C@H](CN(C)Cc2ccc(C(F)(F)F)cc2)Oc2ccc(NC(=O)Cn3cnnn3)cc2C1=O,inactive
4,C[C@@H]1CN([C@@H](C)CO)S(=O)(=O)c2ccc(C#CC(C)(C)O)cc2O[C@H]1CN(C)C(=O)CN(C)C,inactive
5,C[C@@H]1CN([C@@H](C)CO)C(=O)Cc2cc(NS(=O)(=O)c3cn(C)cn3)ccc2O[C@@H]1CN(C)CC1CC1,inactive
6,O=C(C[C@@H]1CC[C@@H](NS(=O)(=O)c2ccccc2)[C@@H](CO)O1)NCc1ccncn1,inactive
7,Cc1ccc(-c2ccc3c(c2)O[C@@H](CN(C)C(=O)CN(C)C)[C@@H](C)CN([C@@H](C)CO)S3(=O)=O)cc1,inactive
8,C[C@H]1CN([C@@H](C)CO)C(=O)c2cc(NC(=O)NC3CCCCC3)ccc2O[C@H]1CN(C)S(=O)(=O)c1cn(C)cn1,inactive
9,C[C@@H]1CCCCO[C@@H](CN(C)C(=O)NC2CCCCC2)[C@@H](C)CN([C@@H](C)CO)C(=O)c2cc(NC(=O)c3ccccc3)ccc2O1,inactive
10,COc1ccc(S(=O)(=O)Nc2ccccc2CN(C)C/C=C/c2ccc(Cl)cc2)cc1.O=P(=O)OO,inactive
11,Cc1noc(C)c1NC(=O)N(C)C[C@H]1Oc2c(NS(=O)(=O)c3cn(C)cn3)cccc2C(=O)N([C@@H](C)CO)C[C@H]1C,inactive
12,Cc1noc(C)c1S(=O)(=O)Nc1ccc2c(c1)C(=O)N([C@H](C)CO)C[C@H](C)[C@@H](CN(C)Cc1ccccc1)O2,inactive
13,CCN(CCCCOC(=O)c1ccc(OC)c(OC)c1)C(C)Cc1ccc(OC)cc1.Cl (stereo not given),inactive
14,C[C@@H]1CN([C@H](C)CO)C(=O)c2cc(NC(=O)C3CCCCC3)ccc2O[C@@H](C)CCCCO[C@@H]1CN(C)C(=O)Nc1cccc2ccccc12,active
15,C[C@H](CO)N1C[C@H](C)[C@H](CN(C)C(=O)c2ccc3c(c2)OCO3)Oc2ncc(C#Cc3ccccc3F)cc2C1=O,inactive
16,C[C@H](CO)N1C[C@H](C)[C@H](CN(C)S(=O)(=O)c2cn(C)cn2)Oc2ncc(C#Cc3ccc(F)cc3)cc2C1=O,inactive
17,C[C@H](NC(=O)C[C@@H]1CC[C@@H](NC(=O)CN2CCOCC2)[C@H](CO)O1)c1ccccc1,inactive
18,CCS(=O)(=O)N1C[C@]2(CCN(CC2)Cc2cccc(c2)OC)c2c(n(c3cc(ccc23)OC)C)[C@@H]1CO,inactive
19,COc1ccc(S(=O)(=O)Nc2ccc3c(c2)C(=O)N([C@@H](C)CO)C[C@H](C)[C@@H](CN(C)CC2CC2)O3)cc1,inactive
20,Cc1ccc(S(=O)(=O)Nc2ccc3c(c2)CC(=O)N([C@H](C)CO)C[C@@H](C)[C@@H](CN(C)Cc2ccc(C(F)(F)F)cc2)O3)cc1,active
